{
  "source": "the supplement of paper PMC8728848",
  "assay_in_all_cases": "glycan array binding signal (z-score within array); higher = stronger binding",
  "settings_in_all_cases": "glycan notation: IUPAC condensed, linker removed; mutation: R74S",
  "key": {"Glc(b1-4)Glc": {"target": "Glc(b1-4)Glc", "procedure,_shortened": "(§1)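 The binding signal is a Z-score computed within each array. Data were drawn from 3228 arrays in the Consortium for Functional Glycomics database, restricted to those with a known protein sequence. Scores were averaged over arrays of the same protein sequence at different concentrations or buffers, and over linkers, and negative values can be taken as non-binding.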"}, "Glc(b1-6)Glc": {"target": "Glc(b1-6)Glc", "procedure,_shortened": "as §1"}, "GlcA(b1-3)Gal": {"target": "GlcA(b1-3)Gal", "procedure,_shortened": "as §1"}, "GlcA(b1-3)GlcNAc": {"target": "GlcA(b1-3)GlcNAc", "procedure,_shortened": "as §1"}, "GlcA(b1-6)Gal": {"target": "GlcA(b1-6)Gal", "procedure,_shortened": "as §1"}, "[1]": {"target": "GlcA3S(b1-3)Gal(b1-4)GlcNAc(b1-2)Man", "procedure,_shortened": "as §1"}, "[2]": {"target": "GlcA3S(b1-3)Gal(b1-4)GlcNAc(b1-3)Gal(b1-4)Glc", "procedure,_shortened": "as §1"}, "[3]": {"target": "GlcNAc(a1-3)Gal(b1-4)GlcNAc", "procedure,_shortened": "as §1"}, "[4]": {"target": "GlcNAc(a1-4)Gal(b1-3)GlcNAc", "procedure,_shortened": "as §1"}, "[5]": {"target": "GlcNAc(a1-4)Gal(b1-4)GalNAc", "procedure,_shortened": "as §1"}, "[6]": {"target": "GlcNAc(a1-4)Gal(b1-4)GlcNAc", "procedure,_shortened": "as §1"}, "[7]": {"target": "GlcNAc(a1-4)Gal(b1-4)GlcNAc(b1-3)Gal(b1-4)Glc", "procedure,_shortened": "as §1"}, "[8]": {"target": "GlcNAc(a1-4)Gal(b1-4)GlcNAc(b1-3)Gal(b1-4)GlcNAc", "procedure,_shortened": "as §1"}, "[9]": {"target": "GlcNAc(a1-4)Gal(b1-4)GlcNAc(b1-3)Gal(b1-4)GlcNAc(b1-3)Gal(b1-4)GlcNAc", "procedure,_shortened": "as §1"}, "[10]": {"target": "GlcNAc(a1-4)Gal(b1-4)GlcNAc(b1-3)Gal(b1-4)[Fuc(a1-3)]GlcNAc(b1-3)Gal(b1-4)[Fuc(a1-3)]GlcNAc", "procedure,_shortened": "as §1"}, "[11]": {"target": "GlcNAc(a1-6)Gal(b1-4)GlcNAc", "procedure,_shortened": "as §1"}, "[12]": {"target": "GlcNAc(b1-2)Gal(b1-3)GalNAc", "procedure,_shortened": "as §1"}, "[13]": {"target": "GlcNAc(b1-2)Man(a1-3)[GlcNAc(b1-2)Man(a1-6)]Man(b1-4)GlcNAc(b1-4)GlcNAc", "procedure,_shortened": "as §1"}, "[14]": {"target": "GlcNAc(b1-2)Man(a1-3)[GlcNAc(b1-2)Man(a1-6)]Man(b1-4)GlcNAc(b1-4)[Fuc(a1-6)]GlcNAc", "procedure,_shortened": "as §1"}, "[15]": {"target": "GlcNAc(b1-2)Man(a1-3)[GlcNAc(b1-4)][GlcNAc(b1-2)Man(a1-6)]Man(b1-4)GlcNAc(b1-4)GlcNAc", "procedure,_shortened": "as §1"}, "[16]": {"target": "GlcNAc(b1-2)Man(a1-3)[GlcNAc(b1-4)][GlcNAc(b1-2)Man(a1-6)]Man(b1-4)GlcNAc(b1-4)[Fuc(a1-6)]GlcNAc", "procedure,_shortened": "as §1"}, "[17]": {"target": "GlcNAc(b1-2)[GlcNAc(b1-4)]Man(a1-3)[GlcNAc(b1-2)Man(a1-6)]Man(b1-4)GlcNAc(b1-4)GlcNAc", "procedure,_shortened": "as §1"}},
  "note": "This is one part of the list.",
  "data": [
    {"binder": "Gal 7 (Homo sapiens) (protein) MSNVPHKSSLPEGIRPGTVLRIRGLVPPNASRFHVNLLCGEEGGSDAALHFNPRLDTSEVVFNSKEGGSWGREESGPGVPFGRGQPFEVLIIASDDGFKAVVGDAQYHHFRHRLPLARVRLVEVGGDVQLDSVRIF", "values": [
      {"measurement": "glycan array binding signal (z-score)", "setting": "Glc(b1-4)Glc", "value": 0.037},
      {"measurement": "glycan array binding signal (z-score)", "setting": "Glc(b1-6)Glc", "value": 0.081},
      {"measurement": "glycan array binding signal (z-score)", "setting": "GlcA(b1-3)Gal", "value": -0.566},
      {"measurement": "glycan array binding signal (z-score)", "setting": "GlcA(b1-3)GlcNAc", "value": -0.533},
      {"measurement": "glycan array binding signal (z-score)", "setting": "GlcA(b1-6)Gal", "value": -0.495},
      {"measurement": "glycan array binding signal (z-score)", "setting": "[1]", "value": -0.489},
      {"measurement": "glycan array binding signal (z-score)", "setting": "[2]", "value": -0.404},
      {"measurement": "glycan array binding signal (z-score)", "setting": "[3]", "value": -0.402},
      {"measurement": "glycan array binding signal (z-score)", "setting": "[4]", "value": -0.326},
      {"measurement": "glycan array binding signal (z-score)", "setting": "[5]", "value": -0.587},
      {"measurement": "glycan array binding signal (z-score)", "setting": "[6]", "value": -0.246},
      {"measurement": "glycan array binding signal (z-score)", "setting": "[7]", "value": -0.682},
      {"measurement": "glycan array binding signal (z-score)", "setting": "[8]", "value": -0.406},
      {"measurement": "glycan array binding signal (z-score)", "setting": "[9]", "value": -0.457},
      {"measurement": "glycan array binding signal (z-score)", "setting": "[10]", "value": 0.884},
      {"measurement": "glycan array binding signal (z-score)", "setting": "[11]", "value": -0.306},
      {"measurement": "glycan array binding signal (z-score)", "setting": "[12]", "value": -0.255},
      {"measurement": "glycan array binding signal (z-score)", "setting": "[13]", "value": -0.145},
      {"measurement": "glycan array binding signal (z-score)", "setting": "[14]", "value": -0.071},
      {"measurement": "glycan array binding signal (z-score)", "setting": "[15]", "value": -0.02},
      {"measurement": "glycan array binding signal (z-score)", "setting": "[16]", "value": -0.203},
      {"measurement": "glycan array binding signal (z-score)", "setting": "[17]", "value": -0.253}
    ]}
  ]
}
